Assay results taken from the supplement of paper PMC5655136.
Read counts after selection give these values, which scatter widely.

system: NB7; test: fold depletion of shRNA, plasmid library share / infected cells without Dox share (9 days) (ratio); higher = more depleted after infection (more toxic, leaky expression from a Tet-inducible vector; NB7 is a neuroblastoma line without caspase-8); conditions: shRNA pool: CD95L ORF + CD95L 3'UTR + Venus libraries
Procedure: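 Pooled lethality screen in NB7 neuroblastoma cells infected with Dox-inducible pTIP shRNA libraries. The libraries tile every 21-mer of the Venus, CD95L or CD95 ORF / 3'UTR; each hairpin is the 21-nt sense sequence + CTCGAG loop + antisense. Cells were cultured 9 days with or without 100 ng/ml Dox. shRNA representation was measured by deep sequencing of the genomic inserts, normalised to the total reads per subpool and averaged over technical replicates. Fold depletion is the plasmid library share / infected cells without Dox share (mean of 2 biological replicates), and the -Dox/+Dox share ratio is the mean of 4 replicate pairings; higher values mean more depletion (toxicity).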
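Note: shRNA barcodes quantified by deep sequencing of PCR amplicons from cellular DNA, counts expressed as percent of each subpool, ratio averaged over two biological duplicates.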

Row | Sequence | fold depletion of shRNA
1 | ATGGAAAAGGAAGACTAGAGG | 7.53
2 | ATGGAATTGTCCTGCTTTCTG | 0.786
3 | ATGGACGAGCTGTACAAGTAA | 1.5
4 | ATGGAGGAATATGACGGAAGA | 1.85
5 | ATGGGAAGACACCTATGGAAT | 0.756
6 | ATGGTCCTGCTGGAGTTCGTG | 1.58
7 | ATGGTGAGCAAGGGCGAGGAG | 1.05
8 | ATGGTTCTGGTTGCCTTGGTA | 3.27
9 | ATGGTTGTGACCTGAGGATTT | 1.14
10 | ATGTAATAAAAAGTATATGTT | 0.418
11 | ATGTAGATATTGTGAAGTACA | 0.779
12 | ATGTAGATGTGCATTTTTGTG | 0.904
13 | ATGTCAACGTATCTGAGCTCT | 0.776
14 | ATGTCTGTAGCTCCTCAACTC | 1.94
15 | ATGTGCATTTTTGTGAAATGA | 2.33
16 | ATGTGTATTTCCAGTGCAATT | 1.52
17 | ATGTTGTATTCAGTGAGGGTC | 2.17
18 | ATGTTTATGAGCCAGACAAAT | 2.21
19 | ATGTTTCAGCTCTTCCACCTA | 0.972
20 | ATGTTTTCCTATAATATAATA | 0.894
21 | ATGTTTTGGGGACTCATTTCA | 0.936
22 | ATGTTTTTCATGGTTCTGGTT | 1.15
23 | ATTACCCATATCCCCAGATCT | 1.92
24 | ATTAGGAAAATATGGGTTGCA | 14.8
25 | ATTATGATTCTTTGTTACAGG | 1.43

Row | Sequence | fold depletion of shRNA
26 | ATTCAGTGAGGGTCTTCTTAC | 1.84
27 | ATTCCAAAGTATACTTCCGGG | 2.98
28 | ATTCCTAACACAGCATGTGTA | 2.11
29 | ATTCTTTCCATTATGATTCTT | 0.491
30 | ATTCTTTGTTACAGGCACCGA | 2.86
31 | ATTGAAAAGGACACCTTTTAA | 0.662
32 | ATTGATTGTCAGCTACTAATG | 2.16
33 | ATTGGGCCTGGGGATGTTTCA | 1.29
34 | ATTGTAGGGGTGTGTGTGTGT | 0.916
35 | ATTGTCAGCTACTAATGATGT | 2.27
36 | ATTGTCCTGCTTTCTGGAGTG | 1.67
37 | ATTGTGAAGTACATATTAGGA | 0.665
38 | ATTTAACAGGCAAGTCCAACT | 1.83
39 | ATTTAAGGGATGGAAAAGGAA | 3.57
40 | ATTTAGGCAGATTGAAAAGGA | 2.42
41 | ATTTATATGTCAACGTATCTG | 0.926
42 | ATTTATGTAGATGTGCATTTT | 0.985
43 | ATTTCATTCCTAACACAGCAT | 1.1
44 | ATTTCCAGTGCAATTGTAGGG | 1.24
45 | ATTTGAGGTCAAGTAAGAAGA | 1.27
46 | ATTTGGTCAAGATTTTGAATG | 0.479
47 | ATTTTGAATGCTTCCTGACAA | 1.3
48 | ATTTTGAGGAATCTCAGACGT | 2.34
49 | ATTTTTGTGAAATGAAAACAT | 2.1
50 | CAAAATGTCTGTAGCTCCTCA | 1.41

same assay, conditions: shRNA pool: CD95 ORF + CD95 3'UTR + Venus libraries

Row | Sequence | fold depletion of shRNA
51 | ATGGAAAGAAAGAAGCGTATG | 1.33
52 | ATGGAAATATCACCAAAAAAT | 0.773
53 | ATGGAATCATCAAGGAATGCA | 1.8
54 | ATGGACGAGCTGTACAAGTAA | 1.29
55 | ATGGAGGATTTTTTTGCCCCT | 0.62
56 | ATGGCAGCTTATACATAGCAA | 0.765
57 | ATGGCCAATTCTGCCATAAGC | 1.08
58 | ATGGCCTAATGCACCCCCAAA | 1.44
59 | ATGGCTTAGAAGTGGAAATAA | 0.987
60 | ATGGGGATGAACCAGACTGCG | 0.249
61 | ATGGTAAAATCATCATCTGGA | 1.2
62 | ATGGTCCTGCTGGAGTTCGTG | 1.52
63 | ATGGTGAGCAAGGGCGAGGAG | 1.1
64 | ATGGTGTCAATGAAGCCAAAA | 1.52
65 | ATGTAAAACCTGCTACAAATG | 2.95
66 | ATGTAAACCAAACTTTTTTTG | 1.96
67 | ATGTAAACTGTGAAGATAGTT | 1.07
68 | ATGTAAAGTATATGTATTTGA | 0.857
69 | ATGTAATCAGTGTATGTTAGT | 1.38
70 | ATGTAGATTGTGTGATGAAGG | 6.99
71 | ATGTATTTGAGTGCAGAATTT | 1.01
72 | ATGTCATGAACCCATGTTTGC | 1.94
73 | ATGTCCAAGACACAGCAGAAC | 1.13
74 | ATGTCCCATGTAAAACCTGCT | 2.7
75 | ATGTCTATCCACAGGCTAACC | 2.51
76 | ATGTGAACACTGTGACCCTTG | 1.71

Row | Sequence | fold depletion of shRNA
77 | ATGTGAACATGGAATCATCAA | 0.68
78 | ATGTGAATTTTAAGAAATAAT | 0.931
79 | ATGTGTATGCATTTTACTGGC | 3.11
80 | ATGTTAGTACAAATGTCTATC | 0.909
81 | ATGTTCAATAATGTCCCATGT | 0.906
82 | ATGTTGACTTGAGTAAATATA | 0.934
83 | ATGTTTAAAATCTAGTTGGGA | 0.786
84 | ATGTTTGACTATTATATATGT | 1.29
85 | ATGTTTGCAATCAAAGATGAT | 1.96
86 | ATTAAAGATCTCAAAAAAGCC | 2.39
87 | ATTAAATGTGAATTTTAAGAA | 0.739
88 | ATTAAATTATAATGTTTGACT | 0.594
89 | ATTAAGATTATGCTCTGGCAT | 2.86
90 | ATTACCTCTGATAATTCTAGA | 1.02
91 | ATTACTAGAGCTTTGCCACCT | 0.757
92 | ATTACTAGTGACTCAGAAAAT | 0.762
93 | ATTAGCGCTGAAGAGCCAACA | 5.12
94 | ATTAGTGTTTGAAAAGATTCT | 1.53
95 | ATTATAAAATATAGGTAAAAG | 0.727
96 | ATTATAATGTTTGACTATTAT | 0.91
97 | ATTATACAATATTTCAATTGT | 0.982
98 | ATTATATATGTGTATGCATTT | 0.781
99 | ATTATCGTCCAAAAGTGTTAA | 1.18
100 | ATTATGCTCTGGCATCTAACA | 2.57
101 | ATTCAAACTTCAGAAATGAAA | 0.63
102 | ATTCACATAGAAAACATTAAA | 0.752

Row | Sequence | fold depletion of shRNA
103 | ATTCAGACTATCATCCTCAAG | 1.22
104 | ATTCAGTTCTGAGTATATGCA | 1.38
105 | ATTCCACTAATTGTTTGGGTG | 0.989
106 | ATTCTAGAGATTTTACCATAT | 0.797
107 | ATTCTAGCCTGGTTTGGAGAT | 2.74
108 | ATTCTCCTTACTACTATCCTA | 0.791
109 | ATTCTGCCTCCAAGGATGTTT | 4.31
110 | ATTCTGTAGTATGAATGTAAT | 0.844
111 | ATTCTTAATAGCTGGCTGTAA | 0.853
112 | ATTCTTATTTTTCCCCCACCC | 1.4
113 | ATTGAGGAAGACTGTTACTAC | 1.07
114 | ATTGATTAAAGATCTCAAAAA | 0.656
115 | ATTGCTGGAGTCATGACACTA | 1.64
116 | ATTGGAATTGAGGAAGACTGT | 1.34
117 | ATTGGCATCAACTTCATGGAA | 1.59
118 | ATTGGTGTCATATTATACAAT | 0.817
119 | ATTGTGAATTCACATAGAAAA | 0.816
120 | ATTGTGTGATGAAGGACATGG | 3.3
121 | ATTGTTTGGGTGAAGAGAAAG | 0.874
122 | ATTTAAATAAGGCTCTACCTC | 3.11
123 | ATTTAAGATTCTCCTTACTAC | 1.26
124 | ATTTAGGAATTGCTCTTGTCA | 1.74
125 | ATTTATATTTCTGTAAATGTA | 1.13
126 | ATTTATCTGATGTTGACTTGA | 1.24
127 | ATTTATGGAGGATTTTTTTGC | 0.708
128 | ATTTATGTAAAGTATATGTAT | 0.579

Row | Sequence | fold depletion of shRNA
129 | ATTTATTAGCGCTGAAGAGCC | 2.12
130 | ATTTCAATTGTGAATTCACAT | 0.771
131 | ATTTCTAAACTTTGTTTATAA | 0.956
132 | ATTTCTGTAAATGTAAACTGT | 0.987
133 | ATTTGAGTGCAGAATTTAAAT | 1.09
134 | ATTTGTAGATTTTTAATATCT | 0.988
135 | ATTTTAAGAAATAATATTTAT | 0.759
136 | ATTTTACCATATTTCTAAACT | 0.716
137 | ATTTTACTGGCTCAAAACTAC | 1.52
138 | ATTTTATCATTTATTAGCGCT | 1.14
139 | ATTTTGAGCAGGAGAGTATTA | 1.83
140 | ATTTTTAATATCTCATGATTC | 1.2
141 | ATTTTTCCCCCACCCCCGAAA | 5.11
142 | ATTTTTCTTCCAAATGCAGAA | 0.755
143 | ATTTTTGCCTTGGTGCTCATC | 33.8
144 | ATTTTTTTGCCCCTTGTGTTT | 4.88
145 | CAAAAAAGCCAATCTTTGTAC | 1.02
146 | CAAAAAATACTTAATAGTCCA | 0.964
147 | CAAAACTACCTACTTCTTTCT | 0.895
148 | CAAAAGGCAAGACTGCCCTTA | 1.66
149 | CAAAAGTGTTAATGCCCAAGT | 1.55
150 | CAAAATAGATGAGATCAAGAA | 0.861
151 | CAAACATGGAAATATCACCAA | 0.639
152 | CAAACTTCAGAAATGAAATCC | 0.858
153 | CAAACTTCATCAAGAGTAAAT | 0.737
